Test results as given in the DeepSol protein solubility set.

Assay: soluble on expression in E. coli; label from the status in PepcDB or PDB records

Row | Sequence | soluble on expression in E. coli
1 | MGGSHHHHHHGMASQEIIASVDHIKFDLEIAVEQQLGAQPLPFPGMDKSGAAVCEFFLKAACGKGGMCPFRHISGEKTVVCKHWLRGLCKKGDQCEFLHEYDMTKMPECYFYSKFGECSNKECPFLHIDPESKIKDCPWYDRGFCKHGPLCRHRHTRRVICVNYLVGFCPEGPSCKFMHPRFELPMGTTEQPPLPQQTQPPAKQSNNPPLQRSSSLIQLTSQNSSPNQQRTPQVIGVMQSQNSSAGNRGPRPLEQVTCYKCGEKGHYANRCTKGHLAFLSGQ | not soluble
2 | SNASTTKLHPLINQKFQSPLSKEIFFESYFSTENLPFLADHIVYEQVVVPGASHISLLLAAASLTFAATECQIEDILFPQALAIPEQGVRTVQVVLTPQNNSFSFQVISFDDSLESQINQVSNNGSHISDWAVHATGKLSVANAEQSLIPLEEIQARCSQKIDSAEIYQHLWDRQIHLGQSFRWIEQVWLGEGEVLCQMKVPKTILNTTKYQLHPTLVDSCFQSIIALVLDQSGNKNETFVPFSIDKFTFYNSSDNDLLWCYTCGSKDKQSGEKFKADIQLFDQHGQLVAQVIGFEGRKANPKILLMT | soluble
